Experimental data: PubChem BioAssay AID1345082 (National Center for Advancing Translational Sciences (NCATS), 2018)
The whole screen tested about 94,000 compounds, of which about 4,000 (4.3%) were called active. The inconclusive results got no clear call from the source; some entries with a clear call stand among them for comparison. Calls follow the shape of the dose curve; as a rule, active = well fitted inhibition curve with a large enough effect; inconclusive = small, poorly fitted or top-dose-only effect; inactive = no such curve, though single readings can be large or run the other way. A potency beside an inconclusive call is a rough fit, not a confirmed value.

test: Cytotoxic Profiling in NIH 3T3 Cell Line of Diverse Libraries Using Quantitative High-Throughput Screening; conditions: NIH 3T3 viability, CellTiter-Glo ATP luminescence, 48-72 h; series mostly up to 96.7 µM; also: nearly all actives have a fitted effect of over 55% in size
Method in brief: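 ATP-dependent luminescence (CellTiter-Glo) served as the viability signal for NIH 3T3 cells treated with compound for 48 or 72 hr at 37 °C.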
Potency is read from the fitted curve at half-maximal effect; tags tell the direction and shape of the fitted curve.

| Compound | Potency |
| --- | --- |
| CNC(=O)c1cccc(-c2ccc(OC)nn2)c1 | inactive |
| Cc1nnc2ccc(N3CCC(NC(=O)Cc4ccc(F)cc4)C3)nn12 (stereo not given) | inactive |
| O=C(CCc1cc2n(n1)CCCNC2)Nc1ccc(-n2cncn2)cc1 | inactive |
| CCN(C)C(=O)CCc1c(C)nn(-c2ccccc2)c1Oc1ccc(F)cc1F | inconclusive: 44.7 µM [inhibitor, partial curve, poor fit] |
| O=C1c2c(nc(CN3CCC(F)(F)CC3)n2Cc2ccccc2)NCCN1Cc1cccc(Cl)c1 | inconclusive: 50.1 µM [inhibitor, partial curve, poor fit] |
| CN(Cc1cccnc1)c1nc2c(c(=O)[nH]1)CCN(Cc1ccc3cc[nH]c3c1)CC2 | inconclusive: 50.1 µM [inhibitor, partial curve, poor fit] |
| OCC1CN(c2ccncn2)CC12CCN(Cc1ccc(F)c(F)c1)CC2 (stereo not given) | inconclusive: 35.5 µM [inhibitor, partial curve, poor fit] |
| CCn1nc(C)c(-c2cc(C(=O)NCCc3noc(COC)n3)no2)c1C | inconclusive: 63.1 µM [inhibitor, partial curve, poor fit] |
| COc1ccc(Cn2c(C3CCN(C(=O)c4cccc(C)c4)CC3)n[nH]c2=O)cc1 | inactive |
| COc1cccc(S(=O)(=O)N2CCN(C3CCN(CCC(C)C)C3=O)CC2)c1 (stereo not given) | inactive |
| Cc1ccc(N2Cc3c(ncnc3N3CCN(C)CC3)N(C)CC2=O)cc1 | inactive |
| Cc1ccccc1CNC(=O)CCC[C@@H]1[C@H]2CCCN3CCC[C@@H](CN1Cc1cccnc1)[C@@H]23 | inconclusive: 39.8 µM [inhibitor, partial curve, poor fit] |
| CN(C)CCNC(=O)C[C@@H]1c2nc(NC(=O)c3ccco3)sc2C[C@@H]2[C@](C)(CO)[C@H](O)CC[C@]21C | inconclusive: 39.8 µM [inhibitor, single point] |
| COc1ccc(CN2CCC3(C2)C(=NC2CCCCC2)NC(=O)N3c2cccc(OC)c2)cc1 (stereo not given) | inconclusive: 50.1 µM [inhibitor, partial curve, poor fit] |
| Clc1ccc(-c2cnc3n2C[C@H](CNCc2ccc4c(c2)OCO4)OC3)cc1 | inconclusive: 35.5 µM [inhibitor, full curve, poor fit] |
| Cc1nnc([C@H]2CCN(Cc3ccco3)C2)o1 | inactive |
| COc1ccc(NC(=O)c2cc(-c3ccc(C(F)(F)F)cc3)nc3c2cnn3C)cc1OC | inactive |
| NCCc1cccc(CN2CCCC(CO)(CC3CC3)C2)c1 (stereo not given) | inconclusive: 70.8 µM [inhibitor, partial curve, poor fit] |
| CC(C)c1ccc(NC(=O)[C@@H]2COCC(=O)N2Cc2ccccc2)cc1 | inconclusive: 44.7 µM [inhibitor, partial curve, poor fit] |
| COc1ccc(CN2C[C@H]3CN(S(=O)(=O)c4ccc(C)cc4)CCN3C2=O)cc1 | inconclusive: 56.2 µM [inhibitor, partial curve, poor fit] |
| CC(C)N1C[C@H](O)C[C@H]1c1nnc2n1CCN(C(=O)c1cccs1)C2 | inactive |
| Cc1ccc(Nc2ccnc(N3CCCC3C(=O)NC(C)C)n2)cc1 (stereo not given) | inconclusive: 56.2 µM [inhibitor, partial curve, poor fit] |

| Compound | Potency |
| --- | --- |
| COc1ccc(Cn2c3c(c(=O)n2Cc2ccccc2)CCN(C(=O)C2CCOCC2)C3)cc1 | active: 25.1 µM |
| CC(=O)N1CCCN(c2ncnc3c2CN(C2CCC2)C(=O)CN3C)CC1 | inactive |
| Cc1ccc(C(=O)N2CCC(c3nn(-c4ccc(Cl)cc4)c(=O)[nH]3)CC2)cc1 | inconclusive: 70.8 µM [inhibitor, single point] |
| CC(=O)Nc1cccc(-c2ccnc(-c3nnc(C)n3C(C)C)c2)c1 | inconclusive: 89.1 µM [inhibitor, partial curve, poor fit] |
| CN1C[C@@H](NC(=O)c2ccccc2)C[C@H]1c1nc(-c2ccc(F)cc2)no1 | inactive |
| CCCc1nnc([C@H]2CCN(C3CCN(C(C)=O)CC3)C2)o1 | inactive |
| CN(C)c1nc2c(c(N3C[C@@H](CN4CCCC4)[C@@H](CO)C3)n1)CCCC2 | inconclusive: 39.8 µM [inhibitor, partial curve, poor fit] |
| CC(C)CN1CCOC[C@H](Oc2ccc(S(C)(=O)=O)cc2)C1 | inactive |
| COc1ccc(-c2cc(N3CCCC(NC(=O)c4cccc5[nH]ccc45)C3)n[nH]2)cc1 (stereo not given) | active: 35.5 µM |
| Cc1ccc(C(=O)NC2CCCN(CCn3nc4n(c3=O)CCCC4)C2)cc1 (stereo not given) | inactive |
| O=C1NC2(CCN([S+](=O)([O-])c3cccc(C(F)(F)F)c3)CC2)Oc2ccccc21 | inconclusive: 44.7 µM [inhibitor, partial curve, poor fit] |
| Cn1ncc2c(C(=O)N3CCCCC3)cc(-c3ccccc3F)nc21 | inconclusive: 79.4 µM [inhibitor, partial curve, poor fit] |
| COc1ccc(C(=O)N2CC(C(=O)NCCc3ccncc3)C3(CCOCC3)C2)cc1 (stereo not given) | inactive |
| COc1ccc(C(=O)NC2CCN(c3ccc4nnc(C)n4n3)C2)cc1 (stereo not given) | inconclusive: 44.7 µM [inhibitor, partial curve, poor fit] |
| CN(Cc1cc(C(C)(C)C)n[nH]1)C(=O)[C@H]1CCC[C@@H](O)C1 | inconclusive: 89.1 µM [inhibitor, single point] |
| Cc1nccn1CCC1CCN(c2nccc(-c3ccccn3)n2)CC1 | inconclusive: 56.2 µM [inhibitor, partial curve, poor fit] |
| Cc1ccccc1C(=O)N(C)C1CCCc2ccccc21 (stereo not given) | inconclusive: 112 µM [inhibitor, single point] |
| COc1ccc(F)cc1-c1cccc(C(=O)NCCN[S+](=O)([O-])c2cccs2)c1 | inconclusive: 44.7 µM [inhibitor, partial curve, poor fit] |
| Cc1nsc(NC(=O)NC23CC4CC(C2)CC(C(C)C)(C4)C3)n1 | inconclusive: 50.1 µM [inhibitor, partial curve, poor fit] |
| O=C(c1ccc(Cl)cc1)N1CC2(Cc3ccccc3NC2=O)C1 | inconclusive: 25.1 µM [inhibitor, partial curve, poor fit] |
| Cc1cccc(CNC(=O)Cc2ccc(N(Cc3ccc(F)cc3)C(=O)c3ccco3)cc2)c1 | active: 39.8 µM |
| Cc1noc(C)c1Cc1ccc(C(=O)N2CCC(C)(c3noc(-c4ccccn4)n3)CC2)o1 | inconclusive: 39.8 µM [inhibitor, partial curve, poor fit] |

| Compound | Potency |
| --- | --- |
| CNC(=O)c1cc(C2CC2)nc2c1c(C1CCN(C(=O)NC3CCCC3)C1)nn2C (stereo not given) | inactive |
| COCC1CN(S(=O)(=O)c2cccc(F)c2)CC12CCOCC2 (stereo not given) | inactive |
| O=C(C1CCC1)N1CCN(Cc2ccc(=O)n(CC3CC3)c2)CC1 | inactive |
| COc1ccc(N2CCN(C3CCCN(Cc4cc(=O)[nH]c(=O)[nH]4)C3)CC2)cc1 (stereo not given) | inactive |
| Cc1ccc(C)c(C(=O)NCc2nnc3cc(-c4nc(C)no4)ccn23)c1 | inconclusive: 50.1 µM [inhibitor, partial curve, poor fit] |
| COCCn1c(=O)c2c(n1Cc1ccccc1)CN(C(=O)c1cccc(C#N)c1)CC2 | inconclusive: 25.1 µM [inhibitor, full curve, poor fit] |
| CCN(C(=O)CN1C(=O)C(c2ccccc2)=NC12CCCCC2)c1cccc(C)c1 | inconclusive: 50.1 µM [inhibitor, partial curve, poor fit] |
| COc1ccc(C(=O)N2CCC(n3cc(-c4nc(C5CC5)no4)nn3)C2)cc1F (stereo not given) | inconclusive: 28.2 µM [inhibitor, partial curve, poor fit] |
| CCOC(=O)C1CCN(C(=O)C2CCCN(Cc3cccc(-c4ccsc4)c3)C2)CC1 (stereo not given) | inconclusive: 44.7 µM [inhibitor, partial curve, poor fit] |
| O=C(Nc1ccccc1)N1CCN(Cc2ccccc2-c2cccnc2)CC1 | inconclusive: 35.5 µM [inhibitor, partial curve, poor fit] |
| O=S(=O)(Cc1ccccc1F)N1CCCC(CN2CCOCC2)CC1 (stereo not given) | inactive |
| CN(C)CCNC(=O)C1(C)CN(Cc2ccccc2)Cc2ccc(Nc3ccccc3)nc21 (stereo not given) | active: 15.8 µM |
| COc1cccc(C(=O)N2CCC3(CC2)N=C(c2ccc(Cl)cc2)NO3)c1 | inconclusive: 50.1 µM [inhibitor, partial curve, poor fit] |
| O=C(Cc1ccc(Cl)cc1)Nc1cccc(-c2nnc3n2CCCC3)c1 | inconclusive: 50.1 µM [inhibitor, partial curve, poor fit] |
| CN(CC1CCOCC1)C(=O)c1cccc(Cl)c1 | inactive |
| COc1cccc(C(=O)NC2CCCN(c3cc(-c4ccc(F)cc4)[nH]n3)C2)c1OC (stereo not given) | inconclusive: 50.1 µM [inhibitor, partial curve, poor fit] |
| O=C(c1ccoc1)N1CCOc2ccc(CN3CCc4ccccc4C3)cc2C1 | inconclusive: 44.7 µM [inhibitor, partial curve, poor fit] |
| CN1CCN(CC(=O)N2CCCC(c3ccc(Cl)cc3)C2)C1=O (stereo not given) | inactive |
| Cc1cccc(-c2cccc(CN3CCC(NC(=O)c4ccccc4Cl)CC3)c2)c1 | inconclusive: 44.7 µM [inhibitor, partial curve, poor fit] |
| Cc1ccc(C2Cn3nnc(C(=O)N4CCC(C(=O)Nc5ccc(C)c(F)c5)CC4)c3CO2)cc1 (stereo not given) | inactive |
| COC(=O)c1cccc(-c2nc(C3CC(=O)N(c4ccc(F)c(Cl)c4)C3)no2)c1 (stereo not given) | inconclusive: 50.1 µM [inhibitor, partial curve, poor fit] |
